Target: T1, FLAG-FAM111B (purified recombinant) (human, UniProt Q6SJ93 1-734)
T1 sequence: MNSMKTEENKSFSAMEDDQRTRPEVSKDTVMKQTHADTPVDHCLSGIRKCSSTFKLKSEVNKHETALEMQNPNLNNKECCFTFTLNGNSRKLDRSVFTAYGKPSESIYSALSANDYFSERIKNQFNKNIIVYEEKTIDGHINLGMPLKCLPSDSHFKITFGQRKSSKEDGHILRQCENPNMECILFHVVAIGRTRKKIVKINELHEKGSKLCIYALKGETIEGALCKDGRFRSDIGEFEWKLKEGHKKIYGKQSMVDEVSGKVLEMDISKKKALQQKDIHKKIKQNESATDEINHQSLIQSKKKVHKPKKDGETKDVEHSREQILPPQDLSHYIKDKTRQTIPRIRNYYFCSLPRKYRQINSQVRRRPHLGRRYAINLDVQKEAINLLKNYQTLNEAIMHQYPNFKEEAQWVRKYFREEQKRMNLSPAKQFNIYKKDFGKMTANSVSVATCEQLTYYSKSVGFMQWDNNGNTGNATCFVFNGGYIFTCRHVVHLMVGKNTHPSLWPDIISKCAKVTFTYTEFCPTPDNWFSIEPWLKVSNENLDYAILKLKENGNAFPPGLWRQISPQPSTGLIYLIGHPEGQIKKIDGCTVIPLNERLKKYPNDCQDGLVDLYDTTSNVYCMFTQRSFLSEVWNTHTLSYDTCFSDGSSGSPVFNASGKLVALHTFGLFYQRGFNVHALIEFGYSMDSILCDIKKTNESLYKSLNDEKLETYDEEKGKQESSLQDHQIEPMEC
Assay: co-IP

B1: FLAG-FAM111A (purified recombinant) (enzyme)
chain: MSCKKQRSRKHSVNEKCNMKIEHYFSPVSKEQQNNCSTSLMRMESRGDPRATTNTQAQRFHSPKKNPEDQTMPQNRTIYVTLKVNHRRNQDMKLKLTHSENSSLYMALNTLQAVRKEIETHQGQEMLVRGTEGIKEYINLGMPLSCFPEGGQVVITFSQSKSKQKEDNHIFGRQDKASTECVKFYIHAIGIGKCKRRIVKCGKLHKKGRKLCVYAFKGETIKDALCKDGRFLSFLENDDWKLIENNDTILESTQPVDELEGRYFQVEVEKRMVPSAAASQNPESEKRNTCVLREQIVAQYPSLKRESEKIIENFKKKMKVKNGETLFELHRTTFGKVTKNSSSIKVVKLLVRLSDSVGYLFWDSATTGYATCFVFKGLFILTCRHVIDSIVGDGIEPSKWATIIGQCVRVTFGYEELKDKETNYFFVEPWFEIHNEELDYAVLKLKENGQQVPMELYNGITPVPLSGLIHIIGHPYGEKKQIDACAVIPQGQRAKKCQERVQSKKAESPEYVHMYTQRSFQKIVHNPDVITYDTEFFFGASGSPVFDSKGSLVAMHAAGFAYTYQNETRSIIEFGSTMESILLDIKQRHKPWYEEVFVNQQDVEMMSDEDL
B1: binds.

— paper doi:10.1101/2020.03.16.993600 (bioRxiv, 2020)
